Experimental data reported in US5994629A, “Positive selection” (priority 1991, dated 1999).
Structures can show the parent of a compound that is named as a salt.

Assays:
[1] = system: tobacco leaf discs co-cultivated with Agrobacterium; assay: Positive selection of transformed shoots using ZOGN sodium salt; format: cell-based; settings: pH 8.0
Experimental: Using essentially the same procedure as described in Example 13 transgenic tobacco shoots were prepared and selected using cytokinin glucuronide zeatin-o-β-glucuronic acid (ZOGN) as the positive selection agent.
Co-cultivation was carried out for 3 days, the inoculum density corresponding to an OD of 1.5 at 660 nm. The substrate used after co-cultivation was MSO containing 300 mg/l carbenicillin, 300 mg/l cefotaxime and 0.1 mg/l indole acetic acid (IAA). Subcultivation after 3 weeks was to the same substrate but without IAA. The pH in all substrates used in this example was 8.0. 18 leaf discs were used for each treatment.
Five weeks after co-cultivation the shoots were transferred to an MSO substrate containing 200 mg/l kanamycin sulfate, 32 mM saccharic acid, 300 mg/l cefotaxime and 300 mg/l carbenicillin, pH 8.0. Saccharic acid, an inhibitor of β-glucuronidase enzymes, was added to stop further conversion of zeatin glucuronide to zeatin. Together with the β-glucuronidase gene an NPT gene providing resistance to kanamycin was co-transferred. Non-transformed shoots (negative controls) survived, but the growth of these shoots was retarded on this substrate, while all of the transformed shoots (positive controls) containing an active NPT gene survived without any growth retardation.
The number of shoots was registered and the number of GUS-positive shoots among the total number of shoots was determined by the X-gluc assay (Example 3) 3 weeks after the last sub-cultivation (8 weeks after co-cultivation).

[2] = system: tobacco leaf discs co-cultivated with Agrobacterium; assay: Positive selection using ZOGN sodium salt at different temperatures; format: cell-based
Experimental: Transgenic tobacco shoots were prepared using essentially the same procedure as described below in Example 13. Co-cultivation was carried out for 3 days, the inoculum density corresponding to an OD of 1.5 at 660 nm. The substrate used after co-cultivation was MSO containing 10 mg/l 1-(2-hydroxyethylamino)-6-benzylamino-9-methylpurine (9-met), 350 mg/l carbenicillin, 350 mg/l cefotaxime and 0.1 mg/l indole acetic acid (IAA) and ZOGN sodium salt as indicated. 9-met (obtained from Apex Organics Ltd., UK) was added to inhibit glycosylation of zeatin and zeatin derivatives. 18 leaf discs were used for each treatment.
Seven weeks after co-cultivation the shoots were transferred to an MSO substrate containing 300 mg/l kanamycin sulfate, 350 mg/l cefotaxime, 350 mg/l carbenicillin, 0.1 mg/l IAA and 10 mg/l 6-(m-hydroxybenzylamino)-purine (OH-BA) and placed at a temperature of 25° C. OH-BA can be prepared as described by Kaminek et al. (Plant Growth Reg. 6, pp 113-120, 1987).
After six weeks on the kanamycin-containing substrate the number of green shoots was registered. […] No non-transformedshoots (negative controls) survived on this substrate, while all of the transformed shoots (positive controls) containing an active NPT gene survived.
The percentage of kanamycin resistant shoots among the total number of regenerated shoots was calculated as the number of green shoots surviving on the kanamycin-containing substrate divided by the number of shoots transferred to the kanamycin-containing substrate.

[3] = ZOGN 0.07 mg/l + SL (2 mM saccharo 1,4-lactone)
[4] = ZOGN 0.07 mg/l, 8 weeks after co-cultivation

C/C(=C\CNc1ncnc2[nH]cnc12)CO[C@@H]1O[C@H](C(=O)O)[C@@H](O)[C@H](O)[C@H]1O [ZOGN sodium salt, O-β-D-glucopyranuronosylzeatin, sodium salt]
% GUS-positive shoots among total shoots [1, 3]: 0% | GUS-postive shoots per leaf disc [1, 3]: 0 | % GUS-positive shoots among total shoots [1, 4]: 18.5% | GUS-postive shoots per leaf disc [1, 4]: 0.3 | % GUS-positive shoots among total shoots ([1]; ZOGN 1.0 mg/l): 40.3% | GUS-postive shoots per leaf disc ([1]; ZOGN 1.0 mg/l): 2.8 | % GUS-positive shoots among total shoots ([1]; ZOGN 15.0 mg/l): 5.1% | GUS-postive shoots per leaf disc ([1]; ZOGN 15.0 mg/l): 0.2 | % Kanamycin-res. Shoots among total shoots ([2]; 25 ° C., ZOGN 1 mg/l): 4.3% | Kanamycin-res. Shoots per leaf disc ([2]; 25 ° C., ZOGN 1 mg/l): 0.3 | % Kanamycin-res. Shoots among total shoots ([2]; 25 ° C., ZOGN 15 mg/l): 0% | Kanamycin-res. Shoots per leaf disc ([2]; 25 ° C., ZOGN 15 mg/l): 0 | % Kanamycin-res. Shoots among total shoots ([2]; 30 ° C., ZOGN 1 mg/l): 14.8% | Kanamycin-res. Shoots per leaf disc ([2]; 30 ° C., ZOGN 1 mg/l): 1.3 | % Kanamycin-res. Shoots among total shoots ([2]; 30 ° C., ZOGN 15 mg/l): 26.2% | Kanamycin-res. Shoots per leaf disc ([2]; 30 ° C., ZOGN 15 mg/l): 2.4 | % Kanamycin-res. Shoots among total shoots ([2]; 35 ° C., ZOGN 1 mg/l): 26.7% | Kanamycin-res. Shoots per leaf disc ([2]; 35 ° C., ZOGN 1 mg/l): 0.2 | Kanamycin-res. Shoots per leaf disc ([2]; 35 ° C., ZOGN 15 mg/l): 0.2
